Assay results: paper PMC4336329 (PLoS ONE, 2015)
Screen size: about 310,000 compounds; about 14,000 (4.5%) showed an effect of 50% or more. Effects have a minus sign here. Some of the results follow.

Each compound was assayed against human ether-à-go-go-related gene (hERG) potassium channel (human, UniProt Q12809) (assay: primary screen, population patch clamp on CHO cells stably expressing hERG).
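Further: peak tail current of the secondary pulse compared with the same well before compound.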

human ether-à-go-go-related gene (hERG) potassium channel, sequence (Q12809 whole entry, looked up): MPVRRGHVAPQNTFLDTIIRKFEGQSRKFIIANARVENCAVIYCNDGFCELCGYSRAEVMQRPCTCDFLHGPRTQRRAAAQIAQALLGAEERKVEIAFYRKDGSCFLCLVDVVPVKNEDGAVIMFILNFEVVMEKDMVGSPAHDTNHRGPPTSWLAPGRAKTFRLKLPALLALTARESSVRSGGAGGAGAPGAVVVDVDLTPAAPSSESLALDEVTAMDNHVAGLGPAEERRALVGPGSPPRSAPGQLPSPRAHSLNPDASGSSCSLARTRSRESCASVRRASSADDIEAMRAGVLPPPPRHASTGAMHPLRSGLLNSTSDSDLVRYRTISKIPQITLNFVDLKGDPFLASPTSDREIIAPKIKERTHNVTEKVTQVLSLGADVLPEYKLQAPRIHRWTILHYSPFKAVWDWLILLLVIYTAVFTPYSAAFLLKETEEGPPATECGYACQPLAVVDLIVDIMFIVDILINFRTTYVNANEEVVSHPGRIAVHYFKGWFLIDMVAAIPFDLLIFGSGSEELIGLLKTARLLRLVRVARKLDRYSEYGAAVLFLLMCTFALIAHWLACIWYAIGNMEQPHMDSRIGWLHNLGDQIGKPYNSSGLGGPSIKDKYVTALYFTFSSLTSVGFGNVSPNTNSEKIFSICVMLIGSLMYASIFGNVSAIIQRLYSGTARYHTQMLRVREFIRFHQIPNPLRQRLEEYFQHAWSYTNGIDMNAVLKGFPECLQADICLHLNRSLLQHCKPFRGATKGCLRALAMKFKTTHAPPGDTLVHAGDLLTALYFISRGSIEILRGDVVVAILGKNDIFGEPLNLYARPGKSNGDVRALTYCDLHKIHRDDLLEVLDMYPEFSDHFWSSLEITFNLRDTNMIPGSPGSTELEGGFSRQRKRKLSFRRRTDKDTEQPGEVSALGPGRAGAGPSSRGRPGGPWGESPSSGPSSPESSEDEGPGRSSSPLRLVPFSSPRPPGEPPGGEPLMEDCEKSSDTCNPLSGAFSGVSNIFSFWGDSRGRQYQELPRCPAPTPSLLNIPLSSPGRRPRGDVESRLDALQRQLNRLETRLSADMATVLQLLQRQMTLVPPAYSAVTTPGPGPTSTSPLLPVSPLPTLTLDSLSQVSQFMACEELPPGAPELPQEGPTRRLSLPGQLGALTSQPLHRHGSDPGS

Compound | hERG current change (%, negative = inhibition) at 10uM [%]
CSc1cccc(NS(=O)(=O)c2cccc3nsnc23)c1 | -10.9
Cc1ccc(C(=O)Nc2sc(C)c(-c3ccccc3)c2C(N)=O)cc1[N+](=O)[O-] | 6.82
O=C(NCCc1ccc(C(F)(F)F)cc1)C1CCC(=O)N(CCc2cccc(F)c2)C1 (centres unmarked) | -51.4
O=C(COC(=O)c1cccnc1)Nc1ccccc1 | 1.69
COC(=O)c1cnc(Oc2ccc(NC(=O)NC(=O)c3ccccc3Cl)cc2)cc1C(F)(F)F | 8.39
COc1ccc2c(=O)c(C(=O)NCCc3ccc(OC)c(OC)c3)c[nH]c2c1 | -0.661
Cc1ccc(C(CC(=O)O)NC(=O)c2ccc(S(=O)(=O)N3CC(C)OC(C)C3)cc2)cc1 (centres unmarked) | -0.567
CCC(=O)Nc1ccccc1Sc1ncnc2scc(-c3ccccc3)c12 | -4.45
CN(C)CCNC(=O)c1cc2cc(Br)ccc2oc1=O | -12
COc1cccc2cc(/C(C)=N/Nc3nc(-c4cc(C)ccc4C)cs3)c(=O)oc12 | 10.5
N#Cc1c2c(c(-c3ccco3)[nH]c1=O)CCCC2 | -0.163
COc1ccccc1N1C(=O)[C@@H]2C(C(=O)CN3C(=O)c4ccccc4C3=O)=NN[C@@H]2C1=O | 1.65
O=C(Cn1c2ccccc2c(=O)c2ccccc21)N/N=C/c1cc([N+](=O)[O-])ccc1N1CCCCC1 | -6.1
CCOc1ccccc1N1CCN(C(=O)CNC(=O)c2ccccc2F)CC1 | -51.1
Cc1ccc(NC(=O)COC(=O)CSC(=S)N2CCOCC2)cc1 | 16.6
C/C(=N\N=C(N)N)c1cc(Cl)ccc1Cl.CC(=O)O | -11.1
CCOC(=O)C1=NN(C(=O)Nc2cccc(C(F)(F)F)c2)C2C(=O)N(c3cccc(C(F)(F)F)c3)C(=O)C12 (centres unmarked) | 9.89
COc1ccc(S(=O)(=O)N2CCCCCC2)cc1NC(=O)Cc1ccccc1F | -36.8
Cc1cccc(-n2c(SCc3cc(=O)n4ccsc4n3)nc3ccccc3c2=O)c1 | -5.76
COCC(C)NC(=O)c1cc(-c2ccc(OC)c(OC)c2)on1 (centres unmarked) | -3.43
Cc1c(Br)c(=O)oc2c(C)c(O)ccc12 | -10.2
O=C(COc1ccccc1)NC1CCCCCCC1 | -4.51
COc1ccc(/C=N/n2c(-c3ccc(C)cc3)n[nH]c2=S)cc1OC | 8.36
CCN(CC)P(=O)(/C(Cl)=C\Nc1c(C)n(C)n(-c2ccccc2)c1=O)N(CC)CC | -17.6
CCc1ccc(-n2c(Cn3nc(C(F)(F)F)cc3C)n[nH]c2=S)cc1 | 10.1
Cc1ccc(-c2noc(CCCc3ccccc3)n2)cc1 | 5.95
CCCCOC(=O)C[N+](C)(C)CCOC1CC2CCC1(C)C2(C)C.[Br-] (centres unmarked) | -52.7

Compound | hERG current change (%, negative = inhibition) at 10uM [%]
CS(=O)(=O)N(Cc1ccc(C(=O)NCc2ccco2)cc1)c1ccccc1 | -7.93
Cn1c(NCc2ccco2)nc2c1c(=O)n(Cc1ccc(Cl)cc1)c(=O)n2C | 12
CC(=O)c1ccc(N(CC(=O)NC2CCCC2)C(=O)CCC(=O)Nc2cc(C)on2)cc1 | 1.93
Cc1ccc(CNC(=O)COC(=O)c2c(C)noc2C)cc1 | 3.34
Cc1sc2cc3c(c(C(=O)c4ccccc4)[n+]2c1C)-c1cccc2cccc-3c12.[Br-] | -77.1
O=C(c1ccc(COc2ccccc2Cl)o1)N1CCN(c2ccccc2)CC1 | -24.1
O=C(CSc1nnc(-c2ccc(F)cc2)c2ccccc12)Nc1ccccc1Cl | -8.52
c1ccc(-n2nnnc2-c2cnc(-c3ccncc3)nc2-c2cccs2)cc1 | -30.9
CCC(=O)Nc1cccc(NC(=S)NC(=O)c2cccs2)c1 | 3.59
O=C(/C=C/c1cc([N+](=O)[O-])ccc1OC(F)F)Nc1cccc(OC(F)F)c1 | -0.988
CC(=O)C1CCCN(C(=O)c2ccc3oc(CCc4ccccc4)nc3c2)C1 (centres unmarked) | -14.2
CC1CCCCC1NC(=O)CN(C)S(=O)(=O)c1ccc2c(c1)c(=O)n(C)c(=O)n2C (centres unmarked) | -5.53
COc1ccccc1NC(=O)c1cc(S(=O)(=O)NC2CCCC2)ccc1F | 11.7
CCCCN(C(=O)NCCCCCCNC(=O)N(CCCC)C1CCS(=O)(=O)C1)C1CCS(=O)(=O)C1 (centres unmarked) | 30.2
COc1ccc(NC(=O)CC2SC(=O)NC2=O)cc1 (centres unmarked) | 26.8
COc1ccc(F)cc1S(=O)(=O)Nc1cc2c3c(c1)CCC(=O)N3CCC2 | 9.43
CC(C)(C)c1[nH]nc2c1C(c1ccco1)C(C#N)=C(N)O2 (centres unmarked) | 2.69
O=C(NCc1ccco1)C1CCN(c2ccc(S(=O)(=O)N3CCOCC3)cc2[N+](=O)[O-])CC1 | -70
CCCNC(=O)C1(S(=O)(=O)c2ccccc2)CC=CC1 | -14.5
Cc1ccc(-c2nnc(Nc3ccc(CC(N)=O)cc3)c3ccccc23)cc1S(=O)(=O)NCC1CCCO1 (centres unmarked) | 9.83
Fc1ccccc1/C=N/Nc1nc(N2CCCCC2)nc(N2CCCCC2)n1 | 16.7
CC(C)(C)c1ccc(C(=O)N/C(=C\c2cccc([N+](=O)[O-])c2)C(=O)Nc2cccc(C(=O)O)c2)cc1 | 12.7
Cc1ccc2c(c1)N(C(C)C(=O)NCc1cccs1)C(=O)CO2 (centres unmarked) | 2.67
CCc1nc(N)nc(N)c1-c1ccc(Cl)cc1 | -20.7
O=S(=O)(NC1CCN(Cc2ccccc2)CC1)c1cccc2cccnc12 | -22
COc1cccc(N(C(=O)CNC(=O)c2ccco2)C(C(=O)NC2CCCC2)c2cccnc2)c1 (centres unmarked) | -5.54
